Experimental data from paper PMC9726891.
Results are given in words; binding and its absence hold for the method and conditions named. Binding seen in cells or lysates may run through a third protein. Some binding calls cover weakened binding; strength is not graded here. For part of these data: Where a sequence is shown, tags or fusion partners need not be part of it.

Chains of the proteins cited; added tags and fusions are not shown.
UniProt P10659: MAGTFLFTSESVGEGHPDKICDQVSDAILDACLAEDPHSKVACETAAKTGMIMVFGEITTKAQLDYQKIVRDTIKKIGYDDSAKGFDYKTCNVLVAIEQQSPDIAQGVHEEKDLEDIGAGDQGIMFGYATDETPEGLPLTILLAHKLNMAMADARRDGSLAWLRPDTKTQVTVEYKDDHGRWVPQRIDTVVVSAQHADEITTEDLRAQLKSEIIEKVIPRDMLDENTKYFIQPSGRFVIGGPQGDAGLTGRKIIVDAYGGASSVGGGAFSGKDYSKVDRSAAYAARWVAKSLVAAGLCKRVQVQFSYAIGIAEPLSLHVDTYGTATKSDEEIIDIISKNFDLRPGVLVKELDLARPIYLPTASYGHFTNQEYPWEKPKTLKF

B1: Set1 (in yeast whole cell extract) (enzyme, UniProt P38827 1-1080)
chain: MSNYYRRAHASSGSYRQPQEQPQYSRSGHYQYSNGHSHQQYSSQYNQRRRYNHNDGTRRRYNDDRPHSSNNASTRQYYATNNSQSGPYVNKKSDISSRRGMSQSRYSNSNVHNTLASSSGSLPTESALLLQQRPPSVLRYNTDNLKSKFHYFDPIKGEFFNKDKMLSWKATDKEFSETGYYVVKELQDGQFKFKIKHRHPEIKASDPRNENGIMTSGKVATHRKCRNSLILLPRISYDRYSLGPPPSCEIVVYPAQDSTTTNIQDISIKNYFKKYGEISHFEAFNDPNSALPLHVYLIKYASSDGKINDAAKAAFSAVRKHESSGCFIMGFKFEVILNKHSILNNIISKFVEINVKKLQKLQENLKKAKEKEAENEKAKELQGKDITLPKEPKVDTLSHSSGSEKRIPYDLLGVVNNRPVLHVSKIFVAKHRFCVEDFKYKLRGYRCAKFIDHPTGIYIIFNDIAHAQTCSNAESGNLTIMSRSRRIPILIKFHLILPRFQNRTRFNKSSSSSNSTNVPIKYESKEEFIEATAKQILKDLEKTLHVDIKKRLIGPTVFDALDHANFPELLAKRELKEKEKRQQIASKIAEDELKRKEEAKRDFDLFGLYGGYAKSNKRNLKRHNSLALDHTSLKRKKLSNGIKPMAHLLNEETDSKETTPLNDEGITRVSKEHDEEDENMTSSSSEEEEEEAPDKKFKSESEPTTPESDHLHGIKPLVPDQNGSSDVLDASSMYKPTATEIPEPVYPPEEYDLKYSQTLSSMDLQNAIKDEEDMLILKQLLSTYTPTVTPETSAALEYKIWQSRRKVLEEEKASDWQIELNGTLFDSELQPGSSFKAEGFRKIADKLKINYLPHRRRVHQPLNTVNIHNERNEYTPELCQREESSNKEPSDSVPQEVSSSRDNRASNRRFQQDIEAQKAAIGTESELLSLNQLNKRKKPVMFARSAIHNWGLYALDSIAAKEMIIEYVGERIRQPVAEMREKRYLKNGIGSSYLFRVDENTVIDATKKGGIARFINHCCDPNCTAKIIKVGGRRRIVIYALRDIAASEELTYDYKFEREKDDEERLPCLCGAPNCKGFLN
B2: Set2 (in yeast whole cell extract) (enzyme, UniProt P46995 1-733)
chain: MSKNQSVSASEDEKEILNNNAEGHKPQRLFDQEPDLTEEALTKFENLDDCIYANKRIGTFKNNDFMECDCYEEFSDGVNHACDEDSDCINRLTLIECVNDLCSSCGNDCQNQRFQKKQYAPIAIFKTKHKGYGVRAEQDIEANQFIYEYKGEVIEEMEFRDRLIDYDQRHFKHFYFMMLQNGEFIDATIKGSLARFCNHSCSPNAYVNKWVVKDKLRMGIFAQRKILKGEEITFDYNVDRYGAQAQKCYCEEPNCIGFLGGKTQTDAASLLPQNIADALGVTVSMEKKWLKLKKLSGEPIIKNENENINIEFLQSLEVQPIDSPVDVTKIMSVLLQQDNKIIASKLLKRLFTIDDDSLRHQAIKLHGYTCFSKMLKLFITEQPQVDGKGNETEEDDIKFIKGILDFLLELPKTTRNGIESSQIDNVVKTLPAKFPFLKPNCDELLEKWSKFETYKRITKKDINVAASKMIDLRRVRLPPGWEIIHENGRPLYYNAEQKTKLHYPPSGSSKVFSSRSNTQVNSPSSSGIPKTPGALDSKKHKLSDEEYERKKQKRLEYERIALERAKQEELESLKQKLKLENERKSVLEDIIAEANKQKELQKEEAKKLVEAKEAKRLKRKTVSQSQRLEHNWNKFFASFVPNLIKKNPQSKQFDHENIKQCAKDIVKILTTKELKKDSSRAPPDDLTKGKRHKVKEFINSYMDKIILKKKQKKALALSSASTRMSSPPPSTSS
B3: pyruvate kinase Pyk1 (enzyme, UniProt P00549 1-500)
chain: MSRLERLTSLNVVAGSDLRRTSIIGTIGPKTNNPETLVALRKAGLNIVRMNFSHGSYEYHKSVIDNARKSEELYPGRPLAIALDTKGPEIRTGTTTNDVDYPIPPNHEMIFTTDDKYAKACDDKIMYVDYKNITKVISAGRIIYVDDGVLSFQVLEVVDDKTLKVKALNAGKICSHKGVNLPGTDVDLPALSEKDKEDLRFGVKNGVHMVFASFIRTANDVLTIREVLGEQGKDVKIIVKIENQQGVNNFDEILKVTDGVMVARGDLGIEIPAPEVLAVQKKLIAKSNLAGKPVICATQMLESMTYNPRPTRAEVSDVGNAILDGADCVMLSGETAKGNYPINAVTTMAETAVIAEQAIAYLPNYDDMRNCTPKPTSTTETVAASAVAAVFEQKAKAIIVLSTSGTTPRLVSKYRPNCPIILVTRCPRAARFSHLYRGVFPFVFEKEPVSDWTDDVEARINFGIEKAKEFGILKKGDTYVSIQGFKAGAGHSNTLQVSTV
B4: Shm2 (enzyme, UniProt P37291 1-469)
chain: MPYTLSDAHHKLITSHLVDTDPEVDSIIKDEIERQKHSIDLIASENFTSTSVFDALGTPLSNKYSEGYPGARYYGGNEHIDRMEILCQQRALKAFHVTPDKWGVNVQTLSGSPANLQVYQAIMKPHERLMGLYLPDGGHLSHGYATENRKISAVSTYFESFPYRVNPETGIIDYDTLEKNAILYRPKVLVAGTSAYCRLIDYKRMREIADKCGAYLMVDMAHISGLIAAGVIPSPFEYADIVTTTTHKSLRGPRGAMIFFRRGVRSINPKTGKEVLYDLENPINFSVFPGHQGGPHNHTIAALATALKQAATPEFKEYQTQVLKNAKALESEFKNLGYRLVSNGTDSHMVLVSLREKGVDGARVEYICEKINIALNKNSIPGDKSALVPGGVRIGAPAMTTRGMGEEDFHRIVQYINKAVEFAQQVQQSLPKDACRLKDFKAKVDEGSDVLNTWKKEIYDWAGEYPLAV
B5: Acs2 (enzyme, UniProt P52910 1-683)
chain: MTIKEHKVVYEAHNVKALKAPQHFYNSQPGKGYVTDMQHYQEMYQQSINEPEKFFDKMAKEYLHWDAPYTKVQSGSLNNGDVAWFLNGKLNASYNCVDRHAFANPDKPALIYEADDESDNKIITFGELLRKVSQIAGVLKSWGVKKGDTVAIYLPMIPEAVIAMLAVARIGAIHSVVFAGFSAGSLKDRVVDANSKVVITCDEGKRGGKTINTKKIVDEGLNGVDLVSRILVFQRTGTEGIPMKAGRDYWWHEEAAKQRTYLPPVSCDAEDPLFLLYTSGSTGSPKGVVHTTGGYLLGAALTTRYVFDIHPEDVLFTAGDVGWITGHTYALYGPLTLGTASIIFESTPAYPDYGRYWRIIQRHKATHFYVAPTALRLIKRVGEAEIAKYDTSSLRVLGSVGEPISPDLWEWYHEKVGNKNCVICDTMWQTESGSHLIAPLAGAVPTKPGSATVPFFGINACIIDPVTGVELEGNDVEGVLAVKSPWPSMARSVWNHHDRYMDTYLKPYPGHYFTGDGAGRDHDGYYWIRGRVDDVVNVSGHRLSTSEIEASISNHENVSEAAVVGIPDELTGQTVVAYVSLKDGYLQNNATEGDAEHITPDNLRRELILQVRGEIGPFASPKTIILVRDLPRTRSGKIMRRVLRKVASNEAEQLGDLTTLANPEVVPAIISAVENQFFSQKKK
B6: Reb1 (endogenously expressed, tag not stated) (protein, UniProt P21538 1-810)
chain: MPSGHNDKNANQESVEEAVLKYVGVGLDHQNHDPQLHTKDLENKHSKKQNIVESSSDVDVNNNDDSNRNEDNNDDSENISALNANESSSNVDHANSNEQHNAVMDWYLRQTAHNQQDDEDDENNNNTDNGNDSNNHFSQSDIVVDDDDDKNKKDAGVGVDDDHQSMAMAAVAAAYTLSKNNNNNNSIANDSNSRKRQHDNGNNHENSQKKRKNNNDDDDRQIGNVDPELTTLGDADDNDTNNDVIDRDQLVHKAIIDADSITQHPDFQQYLNTAADTDDNEKLKHIKDHLMRTHGLNHQNKNHNDDTDDLSNSTKQYSELQKDSMLDSSLNKSRNYMEVLPKVISQDTQPHQQKSPSHDNEAGSVDNSEISQLLQSAATKASSLVSLSSSSATPSTSRSNNSKAFDKAEDAALERFINEYEAIERLTRQQVCERIWSSDRPKDNFWNNIYKVLPYRSSSSIYKHMRRKYHIFEQRGKWTAEEEQELAKLCAEKEGQWAEIGKTLGRMPEDCRDRWRNYVKCGTNRASNRWSVEEEELLKKVISDMLEEAQQQQSQLHPNLLEEEQHLLQDDQNDHRNNDEDDDDTASAAAAAAAAIQEQQQLLQQKQQDDDDAIAAAAAAASSSLGDNKDEDKPHDSLGIQLDDNSQNSMVPAPSATSTHSKSLSNTIRRHNNKLRKSLMGNGKLDFKDIINWTIVSERMGGTRSRIQCRYKWNKLVKREAIAKIQTVKDDDMLWIFEKLRDLGITEDSQVDWDELAALKPGMKLNGLELKLCYERMKKKVKGYKQKSINEISKELVDYFSSNISMKTEN

Tests used:
H3pT11 (1–23) peptide = test: pull-down; 1.0 µg biotinylated histone peptide incubated with 0.5 ml yeast whole cell extract in 50 mM Tris-HCl pH 7.5, 250 mM NaCl, 0.1% NP-40, overnight at 4 °C; Streptavidin beads; immunoblot; only the target purified
[1] = molecular target: Unmodified H3 (1–23) peptide; test: as above
[2] = molecular target: T1, tandem affinity purification (TAP)-tagged Reb1 (Reb1-TAP) (S. cerevisiae (endogenous in yeast)) (UniProt P21538); test: co-IP; Reb1-TAP immunoprecipitated with calmodulin beads from MNase-digested whole cell extract; 10 mM Tris pH 8.0, 150-350 mM NaCl, 2 mM CaCl2, 0.1% NP-40, 4 h at 4 °C
T1 sequence: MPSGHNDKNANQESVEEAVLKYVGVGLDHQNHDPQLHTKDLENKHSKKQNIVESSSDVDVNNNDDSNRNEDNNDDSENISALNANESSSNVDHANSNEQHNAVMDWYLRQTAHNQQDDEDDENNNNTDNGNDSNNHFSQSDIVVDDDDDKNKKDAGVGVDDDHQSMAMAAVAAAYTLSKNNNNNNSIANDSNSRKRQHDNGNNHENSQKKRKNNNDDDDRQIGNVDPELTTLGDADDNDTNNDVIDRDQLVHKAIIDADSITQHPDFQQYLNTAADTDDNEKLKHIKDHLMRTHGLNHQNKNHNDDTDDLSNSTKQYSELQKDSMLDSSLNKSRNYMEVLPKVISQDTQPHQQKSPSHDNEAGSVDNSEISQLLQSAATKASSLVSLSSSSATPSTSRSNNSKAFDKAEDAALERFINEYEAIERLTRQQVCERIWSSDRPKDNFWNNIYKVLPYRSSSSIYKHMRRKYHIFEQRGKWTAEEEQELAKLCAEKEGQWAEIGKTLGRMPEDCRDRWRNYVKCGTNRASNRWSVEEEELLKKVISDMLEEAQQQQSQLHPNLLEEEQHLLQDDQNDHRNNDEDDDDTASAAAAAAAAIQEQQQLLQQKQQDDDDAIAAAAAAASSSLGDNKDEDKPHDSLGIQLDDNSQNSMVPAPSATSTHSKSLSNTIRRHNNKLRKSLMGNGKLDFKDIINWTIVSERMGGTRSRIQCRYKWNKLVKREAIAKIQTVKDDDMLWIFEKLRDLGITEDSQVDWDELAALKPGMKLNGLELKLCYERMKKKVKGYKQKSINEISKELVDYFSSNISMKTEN

[3] = molecular target: T2, pyruvate kinase Pyk1 (S. cerevisiae (endogenous in yeast)) (UniProt P00549); test: co-IP; endogenous Pyk1 immunoprecipitated with anti-Pyk1 antibody from yeast cell extract
T2 sequence: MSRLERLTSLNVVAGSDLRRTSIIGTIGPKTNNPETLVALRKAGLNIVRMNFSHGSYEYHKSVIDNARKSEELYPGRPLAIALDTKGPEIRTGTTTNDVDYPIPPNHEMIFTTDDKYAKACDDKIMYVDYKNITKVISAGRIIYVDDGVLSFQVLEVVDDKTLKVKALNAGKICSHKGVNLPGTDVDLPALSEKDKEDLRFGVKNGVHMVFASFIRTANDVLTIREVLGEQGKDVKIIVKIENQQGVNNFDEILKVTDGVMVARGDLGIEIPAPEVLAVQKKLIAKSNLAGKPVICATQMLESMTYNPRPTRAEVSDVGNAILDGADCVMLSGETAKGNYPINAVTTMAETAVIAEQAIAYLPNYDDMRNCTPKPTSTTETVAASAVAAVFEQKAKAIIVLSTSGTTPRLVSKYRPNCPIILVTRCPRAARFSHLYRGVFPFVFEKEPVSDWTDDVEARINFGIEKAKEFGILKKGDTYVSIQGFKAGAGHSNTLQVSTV

[4] = molecular target: Sam1 (S. cerevisiae (endogenous in yeast)) (UniProt P10659); test: co-IP; endogenous Sam1 immunoprecipitated with anti-Sam1 antibody from yeast cell extract
[5] = molecular target: T2, pyruvate kinase Pyk1 (S. cerevisiae (endogenous in yeast)); test: co-IP; Reb1 and Pyk1 in cells grown in YPD or in glucose starvation medium SD-C (Supplementary Fig. 12b); bait not given

Row | Binder | binding (H3pT11 (1–23) peptide) | binding [1] | binding [2] | binding [3] | also measured
1 | B1 | binds | binds |  |  | 
2 | B2 | binds | binds |  |  | 
3 | B3 |  |  | binds |  | 
4 | B4 |  |  | binds | binds | 
5 | B5 |  |  | binds | binds | 
6 | B6 |  |  |  | binds | binding [4]: binds; binding [5]: binds
